# From a collection of fitness landscapes (doi:10.1016/j.celrep.2020.107928)
# The full ranking holds about 81,000 sequences; the median of “one-hybrid fitness for binding parS DNA” is about -0.17, and the highest 2% start at about 0.51. This is one part of the list.
# B1: Caulobacter ParB omega fusion; a variant is named by its letters at X, in order, B8GW30 (parent)
# chain: MESVVVGEPGMSEGRRGLGRGLSALLGEVDAAPAQAPGEQLGGSREAPIEILQRNPDQPRRTFREEDLEDLSNSIREKGVLQPILVRPSPDTAGEYQIVAGERAWRAAQRAGLKTVPIMVRELDDLAVLEIGIIENVQRADLNVLEEALSYKVLMEKFERTQENIAQTIGKSXSHVANXMRLLXLPDEVQSYLVSGELTAXHARAIAAAADPVALAKQIIEGGLSVRETEALARKAPNLSAGKSKGGRPPRVKDTDTQALESDLSSVLGLDVSIDHRGSTGTLTITYATLEQLDDLCNRLTRGI
# Variants of: B1
# Assay: one-hybrid fitness for binding parS DNA (scaled: cognate 1, non-cognate 0); higher = stronger binding
# Settings: with parS DNA site
# In short: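 Bacterial one-hybrid selection in E. coli USO rpoZ- hisB- pyrF- with a HIS3 reporter carrying the site 19 bp from the promoter, screening Caulobacter ParB libraries with four specificity codons randomised (NNS). Cells grew 48 hours at 37°C on M9-minus-histidine plus 0.1 mM IPTG and 5 mM 3-AT. Plasmids before and after selection were Illumina-sequenced, three replicate libraries pooled, and variants under 10 reads dropped. Fitness is the log change in variant-to-wild-type read ratio, rescaled to cognate 1, non-cognate 0.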
row,Variant,one-hybrid fitness for binding parS DNA
1,PKST,≤ 0.2
2,SCLS,≤ 0.2
3,SLVE,≤ 0.2
4,NLKV,≤ 0.2
5,PKDH,≤ 0.2
6,RAIL,≤ 0.2
7,EKNT,≤ 0.2
8,QEPA,≤ 0.2
9,CKMF,≤ 0.2
10,DGKT,≤ 0.2
11,QHVM,≤ 0.2
12,FLLS,≤ 0.2
13,RCNQ,≤ 0.2
14,KIDY,≤ 0.2
15,MDHW,≤ 0.2
16,CVMS,≤ 0.2
17,APCF,≤ 0.2
18,MYSC,≤ 0.2
19,QDHK,≤ 0.2
20,RSVY,0.37
21,ENLT,≤ 0.2
22,TVKW,≤ 0.2
23,YFLG,0.212
24,GNRR,≤ 0.2
25,NSHG,≤ 0.2
26,WYST,≤ 0.2

row,Variant,one-hybrid fitness for binding parS DNA
1,MEKC,≤ 0.2
2,DHLT,≤ 0.2
3,SMVT,≤ 0.2
4,TRAL,≤ 0.2
5,QAII,≤ 0.2
6,GPSI,≤ 0.2
7,KKRH,≤ 0.2
8,IRYL,≤ 0.2
9,MVAS,≤ 0.2
10,HHLN,≤ 0.2
11,LPLA,≤ 0.2
12,MKKN,≤ 0.2
13,RYTN,0.429
14,SWHW,≤ 0.2
15,IRPC,≤ 0.2
16,MKVG,≤ 0.2
17,TTVY,≤ 0.2
18,TDAL,≤ 0.2
19,PNDG,≤ 0.2
20,WITN,≤ 0.2
21,DQNR,≤ 0.2
22,STQR,≤ 0.2
23,RWTE,≤ 0.2
24,RKMF,≤ 0.2
25,AWMG,≤ 0.2
26,TKGA,≤ 0.2

row,Variant,one-hybrid fitness for binding parS DNA
1,QMQD,≤ 0.2
2,KITG,≤ 0.2
3,NTHN,≤ 0.2
4,QMMV,≤ 0.2
5,WLRA,≤ 0.2
6,RMHL,≤ 0.2
7,MVCP,≤ 0.2
8,MAQG,≤ 0.2
9,TEES,≤ 0.2
10,GKSV,≤ 0.2
11,QDEW,≤ 0.2
12,FCST,≤ 0.2
13,RYHP,≤ 0.2
14,NDRF,≤ 0.2
15,HRNM,≤ 0.2
16,VDHC,≤ 0.2
17,QMGL,≤ 0.2
18,RAWP,≤ 0.2
19,KFDS,≤ 0.2
20,KHWR,≤ 0.2
21,MLWS,≤ 0.2
22,FNVG,≤ 0.2
23,LVQY,≤ 0.2
24,LVGY,≤ 0.2
25,LLHV,≤ 0.2
26,PKTM,≤ 0.2

row,Variant,one-hybrid fitness for binding parS DNA
1,KRMY,≤ 0.2
2,ATDM,≤ 0.2
3,YKTP,≤ 0.2
4,RCME,≤ 0.2
5,PDCC,≤ 0.2
6,SDSD,≤ 0.2
7,CKSS,≤ 0.2
8,LPSW,≤ 0.2
9,NQRY,≤ 0.2
10,SPWS,≤ 0.2
11,TKMP,≤ 0.2
12,CISG,≤ 0.2
13,VIKY,≤ 0.2
14,LWRG,≤ 0.2
15,ATIM,≤ 0.2
16,NTVG,≤ 0.2
17,SSIR,≤ 0.2
18,KLDG,≤ 0.2
19,AIIC,≤ 0.2
20,DNLN,≤ 0.2
21,YWYG,≤ 0.2
22,IVTC,≤ 0.2
23,VAGE,≤ 0.2
24,ESRT,≤ 0.2
25,HMGY,≤ 0.2
26,PSNA,≤ 0.2

row,Variant,one-hybrid fitness for binding parS DNA
1,FWKR,≤ 0.2
2,NSRC,≤ 0.2
3,MLMG,≤ 0.2
4,VKLT,≤ 0.2
5,KLPW,≤ 0.2
6,VHPV,≤ 0.2
7,AVTY,≤ 0.2
8,GRIG,≤ 0.2
9,ATTL,≤ 0.2
10,KYCT,≤ 0.2
11,FMES,≤ 0.2
12,EGHP,0.233
13,TSLN,≤ 0.2
14,EIHG,≤ 0.2
15,QWGH,≤ 0.2
16,RPII,≤ 0.2
17,KGCG,≤ 0.2
18,ISTL,≤ 0.2
19,PIRF,≤ 0.2
20,TIWP,≤ 0.2
21,ESMD,≤ 0.2
22,LRPF,≤ 0.2
23,AMNS,≤ 0.2
24,GKSN,≤ 0.2
25,VRNS,≤ 0.2
26,WSYG,≤ 0.2

row,Variant,one-hybrid fitness for binding parS DNA
1,QYTL,≤ 0.2
2,HPFS,≤ 0.2
3,PISC,≤ 0.2
4,CHSV,≤ 0.2
5,RGDL,≤ 0.2
6,EYIC,≤ 0.2
7,STVN,≤ 0.2
8,QVSW,≤ 0.2
9,ANCA,≤ 0.2
10,CRML,≤ 0.2
11,WSWT,≤ 0.2
12,YSKD,≤ 0.2
13,RGTT,0.624
14,QMVD,≤ 0.2
15,QQCD,≤ 0.2
16,YSNF,≤ 0.2
17,RDLA,≤ 0.2
18,RYPG,0.545
19,PDWL,≤ 0.2
20,HEYG,≤ 0.2
21,RSYI,≤ 0.2
22,MTSS,≤ 0.2
23,LPHF,≤ 0.2
